# According to PubChem BioAssay AID1240 (Sanford-Burnham Center for Chemical Genomics, 2008):
# About 800 (1.6%) of roughly 50,000 compounds showed an effect of 50% or more. The list shows a part of the results.
# Biological target: Bcl-2-like protein 10 (Homo sapiens) (UniProt Q9HD36)
# Test: Phenotype converters, Bcl-B/TR3 peptide binding displacement, primary biochemical FP (AID 1240);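 note: 0% = Bcl-B with tracer peptide and DMSO and 100% = tracer peptide lacking Bcl-B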
# Conditions: GST-Bcl-B / FITC-TR3 peptide fluorescence polarization; stronger effect = higher value; compound at 3.75 mg/L
# Chain of UniProt Q9HD36 (Q9HD36 whole entry, looked up): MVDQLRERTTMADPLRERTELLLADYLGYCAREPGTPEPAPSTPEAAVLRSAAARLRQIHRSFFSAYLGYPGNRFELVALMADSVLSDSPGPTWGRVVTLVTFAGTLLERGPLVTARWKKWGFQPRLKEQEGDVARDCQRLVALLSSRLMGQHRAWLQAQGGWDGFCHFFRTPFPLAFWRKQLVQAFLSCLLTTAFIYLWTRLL
row,Compound,displacement
1,O=C(NN1C(=O)/C(=C/c2ccc(O)cc2)SC1=S)c1ccccc1O,1.9%
